Test results published in PubChem BioAssay AID686978 (National Center for Advancing Translational Sciences (NCATS), 2013).
The whole screen tested about 420,000 compounds, of which about 64,000 (15%) were called active. The shares of active, inactive and inconclusive entries below differ from those in the screen. Calls come from the whole dose curve; as a rule, active = well fitted inhibition curve with a large enough effect; inconclusive = small, poorly fitted or top-dose-only effect; inactive = flat fitted curve, though single readings scatter. Potencies of inconclusive entries are left out as doubtful fits.

Assay: qHTS for Inhibitors of human tyrosyl-DNA phosphodiesterase 1 (TDP1): qHTS in cells in absence of CPT; note: nearly all actives have a fitted effect of over 55% in size
Conditions: DT40 Tdp1-/- hTDP1 cells, no CPT, ATP luminescence, 48 h; activity change, negative = growth inhibition: at 46.2 µM (top of the series) unless noted
Method in brief: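 Growth kinetics read by CellTiter-Glo luminescence after ≥48 hr at 37 °C. Cells: DT40 Tdp1-/- stably carrying human TDP1, 400 per well, compound exposure in the absence of CPT (DMSO vehicle).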
% is set by controls: 0 for no effect and ±100 for the full control effect; potency is the fitted concentration of half-maximal effect; tags give direction and shape of the fitted curve.

Row | SMILES | activity change, negative = growth inhibition | Potency
1 | COc1ccccc1CNC(=O)CCNC(=O)C1CCN(S(=O)(=O)c2ccccc2)CC1 | inactive: 9.52% | –
2 | CCOc1ccc2nc(N3CCC(C(=O)Nc4cc(C)ccc4C)CC3)sc2c1 | – | active: 16.4 µM
3 | O=C(c1cccnc1)N1CCN(c2c(Cl)cccc2[N+](=O)[O-])CC1 | – | active: 8.2 µM
4 | Cc1ccc(CNC(=O)c2ccc(N3CCC4(CC3)CC(c3cccc(Br)c3)=NO4)c(NC(=O)c3ccc(Br)cc3)c2)cc1 | inactive: -5.16% | –
5 | O=C1OC(COCC#Cc2ccccc2)CN1c1ccccc1 (configuration not stated) | – | inconclusive [inhibitor, single point]
6 | CC(=O)NC(CC(=O)NC(C)c1ccc(Cl)cc1Cl)c1ccccc1 (configuration not stated) | inactive: -13.1% | –
7 | COCCCNC(=O)c1ccc2c(c1)nc1n2CCCCC1 | inactive: -5.15% | –
8 | COc1ccc(-c2sc(N)nc2-c2ccccc2)cc1 | – | inconclusive [inhibitor, single point]
9 | O=c1c(-c2ccc(Cl)cc2)cnc2n1CCS2 | – | inconclusive [inhibitor, partial curve]
10 | Oc1ccc(NCc2cccs2)cc1 | – | active: 13 µM
11 | CCCCOc1ccc(Cc2c(Cl)nc(SC)nc2N2CCOCC2)cc1 | – | inconclusive [inhibitor, partial curve, poor fit]
12 | O=c1[nH]c(CN(CCc2ccccc2)S(=O)(=O)c2ccc(Cl)cc2)nc2ccccc12 | – | inconclusive [inhibitor, partial curve]
13 | Cc1ccc(NC(=O)Cn2cc3c(n2)CCCC3)c(C)c1 | inactive: -15.7% | –
14 | O=C1CC2(CCN(C(=O)C3CC(=O)N(c4ccccc4)C3)CC2)Oc2ccccc21 (configuration not stated) | – | inconclusive [inhibitor, partial curve]
15 | Cc1ccc(C(=O)NCC(=O)Nc2ccncc2)cc1C | inactive: -25.2% | –
16 | COc1cccc(C(=O)NCCS(=O)(=O)N2CCN(C(=O)c3ccco3)CC2)c1 | inactive: -1.1% | –
17 | COc1ccc(CNCCC(c2ccc(F)cc2)c2ccc(OC)cc2)cc1 (configuration not stated) | – | active: 10.3 µM
18 | CCCCc1ccc(NC(=O)CSc2nc(=O)n(CCN(C)C)c3c2CCC3)cc1 | – | inconclusive [inhibitor, single point]
19 | COc1ccc(OCCNS(=O)(=O)Cc2ccccc2)cc1 | – | inconclusive [inhibitor, single point]
20 | Cc1ccc2nc(N/N=C/c3ccccc3F)nc(-c3ccccc3)c2c1 | – | inconclusive [inhibitor, single point]
21 | Cc1c(C(=O)NC2CC(C)(C)NC(C)(C)C2)oc2c(Cl)cccc12 | – | inconclusive [inhibitor, single point]
22 | COc1ccc(NC(=O)CSc2nc(-c3cccs3)cc(C(F)(F)F)n2)c(OC)c1 | – | active: 20.6 µM
23 | O=C(NC1CCCCC1)c1ccc(CSc2nc3ccncc3n2Cc2ccccc2F)cc1 | – | inconclusive [inhibitor, single point]
24 | CC(=O)c1ccc(NC(=O)CN2C(=O)NC(C)(c3ccc4c(c3)OCCO4)C2=O)cc1 (configuration not stated) | – | inconclusive [inhibitor, single point]

Row | SMILES | activity change, negative = growth inhibition | Potency
25 | CCN(CC)c1ccc(S(=O)(=O)N2CCOCC2)cc1NC(=O)COC(=O)/C=C/c1ccccc1 | – | inconclusive [inhibitor, single point]
26 | Oc1c(C(c2ccccc2Cl)N2CCN(Cc3ccccc3)CC2)sc2nc(-c3ccco3)nn12 (configuration not stated) | – | inconclusive [inhibitor, single point]
27 | Cc1ccc(S(=O)(=O)N2CCN(C(=O)COC(=O)c3cncc(Br)c3)CC2)c(C)c1 | inactive: -19.3% | –
28 | CCOC(=O)c1ccc(NC(=S)NCCc2ccc(OC)c(OC)c2)cc1 | – | inconclusive [inhibitor, partial curve]
29 | Cc1cc(Br)ccc1NC(=O)CNC(=O)Cn1ncc(Cl)c(Cl)c1=O | – | active: 3.66 µM
30 | COc1ccc2c(-c3ccccc3)cc(SCC(N)=O)nc2c1 | – | active: 20.6 µM
31 | COC(=O)c1cccc(NS(=O)(=O)c2ccc(OC)cc2)c1C | – | active: 6.51 µM
32 | O=C(CSCc1cnn(-c2ccccc2)c1-n1cccc1)NCc1ccc(F)cc1 | – | inconclusive [inhibitor, single point]
33 | CCN(CC)CCCNC(=O)CSc1nc(-c2ccc(OC)cc2)cc(C(F)(F)F)n1 | – | inconclusive [inhibitor, single point]
34 | O=C(O)Cc1sc(N/N=C\c2ccccc2)nc1-c1ccccc1 | – | active: 23.1 µM
35 | Cc1[nH]nc2c1C(c1ccsc1)C(C#N)=C(N)O2 (configuration not stated) | – | inconclusive [inhibitor, single point]
36 | COc1ccc(CCNS(=O)(=O)c2ccc3c(c2)CCCC3)cc1OC | – | inconclusive [inhibitor, single point]
37 | CSc1nnc(CCNC(=O)c2ccccc2C(F)(F)F)n1-c1ccc(F)cc1 | inactive: -6.98% | –
38 | O=C(c1ccncc1)N1N=C(c2ccc(Br)cc2)CC1c1ccccc1O (configuration not stated) | – | inconclusive [inhibitor, single point]
39 | COc1cc(NC(=O)Cc2ccc(F)cc2)cc(OC)c1OC | – | inconclusive [inhibitor, single point]
40 | CCOc1ccc(-c2ccc3nnc(SCC(=O)NCC4CCCO4)n3n2)cc1 (configuration not stated) | inactive: -1.3% | –
41 | CNC(=S)N1CCN(C(c2ccccc2)c2ccccc2)CC1 | – | inconclusive [inhibitor, single point]
42 | CCOC(=O)c1cnc2ccc(OCC)cc2c1N1CCN(c2ccccc2F)CC1 | – | active: 11.6 µM
43 | Cc1ccccc1Oc1cc(-n2ncc(Cl)c(Cl)c2=O)ncn1 | – | active: 0.411 µM
44 | Cn1c(=O)n(C)c2cc([N+](=O)[O-])c(N3CCN(C(=O)c4ccc(Cl)cc4)CC3)cc21 | – | inconclusive [inhibitor, single point]
45 | Cc1ccc(OCC(=O)O/N=C(\N)Cc2ccc(Cl)cc2)cc1 | – | active: 4.61 µM
46 | O=C(Cc1ccc(Cl)cc1)Nc1ccc2oc(-c3ccncc3)nc2c1 | inactive: -23.8% | –
47 | COc1ccc(CC(=O)NNC(=S)NC(=O)c2cccnc2)cc1 | – | inconclusive [inhibitor, partial curve]
